Measurements from the supplement of paper PMC4604168 (melanoma cell lines).
The list shows a part of the results. Many values rest on one well or one pass, so single values are uncertain.

Tests used:
Assay in all cases: cell count relative to DMSO control; melanoma cells; higher = more viable cells
Conditions in all cases: library dose: standard library concentration; 72 h
[1] = test system: SkMel28
[2] = test system: SkMel2
[3] = test system: SkMel30
[4] = test system: SkMel5
[5] = test system: UACC257
[6] = test system: UACC62
[7] = test system: WM115
[8] = test system: WM1716
[9] = test system: WM1745
[10] = test system: WM3526
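Further: cells treated in 1,536-well plates, then fixed and DAPI-stained, with nuclei counted from automated high-throughput microscope images.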

Structure (SMILES) | cell count [1] | cell count [2] | cell count [3] | cell count [4] | cell count [5] | cell count [6] | cell count [7] | cell count [8] | cell count [9] | cell count [10]
O=C(CCCCCCC(=O)Nc1ccccc1)NO [vorinostat] + Cn1cc(/C=C2\C(=O)Nc3cccnc32)c2ccccc21 [GW441756] (first compound 0.4 µM, partner dose 2 µM) | 70.1% | 101% | 76.8% | 60.9% | 76.2% | 62.4% | 86.7% | 73.7% | 95.7% | 57.5%
Nc1cccc2c1CN(C1CCC(=O)NC1=O)C2=O (stereo not given) [lenalidomide] + COc1cc(N2CCC(N3CCN(C)CC3)CC2)ccc1Nc1ncc(Cl)c(Nc2ccccc2S(=O)(=O)C(C)C)n1 [NVP-TAE684] (first compound 5 µM, partner dose 0.4 µM) | 82.1% | 77.1% | 111% | 65.2% | 79% | 97.3% | 80.4% | 82.7% | 29.6% | 79.6%
Clc1ccc(Nc2nnc(Cc3ccncc3)c3ccccc23)cc1 [vatalanib] + C[C@@H]1CCN(C(=O)CC#N)C[C@@H]1N(C)c1ncnc2[nH]ccc12 [CP690550] (first compound 10 µM, partner dose 5 µM) | 57.7% | 61.1% | 85.4% | 54.1% | 71% | 78.7% | 82% | 82.1% | 54.7% | 75.7%
COCC[n+]1c2c(n(Cc3cnccn3)c1C)C(=O)c1ccccc1C2=O + CCc1ccc(CCOc2ccc(CC3SC(=O)NC3=O)cc2)nc1 [pioglitazone] (first compound 0.002 µM, partner dose 10 µM) | 24% | 42.9% | 67.2% | 36.7% | 40.3% | 74.9% | 73.5% | 65.5% | 87.3% | 39.5%
Cn1c(Nc2ccc(C(F)(F)F)cc2)nc2cc(Oc3ccnc(-c4ncc(C(F)(F)F)[nH]4)c3)ccc21 + CCN(CC)CCCCNc1ncc2cc(-c3cc(OC)cc(OC)c3)c(NC(=O)NC(C)(C)C)nc2n1 [PD173074] (first compound 0.4 µM, partner dose 0.5 µM) | 36% | 55.8% | 79.7% | 47.5% | 84.9% | 59.2% | 31.7% | 63.8% | 54.6% | 46.8%
O=C(CCCCCCC(=O)Nc1ccccc1)NO [vorinostat] + COc1cc(Nc2ncc(F)c(Nc3ccc4c(n3)NC(=O)C(C)(C)O4)n2)cc(OC)c1OC [Tamatinib] (first compound 0.4 µM, partner dose 2 µM) | 68.6% | 54% | 90.8% | 43.9% | 62.7% | 66% | 73.1% | 73.4% | 36.6% | 68.5%
COCC[n+]1c2c(n(Cc3cnccn3)c1C)C(=O)c1ccccc1C2=O + CO[C@@H]1[C@H](N(C)C(=O)c2ccccc2)C[C@H]2O[C@]1(C)n1c3ccccc3c3c4c(c5c6ccccc6n2c5c31)C(=O)NC4 [Midostaurin] (first compound 0.002 µM, partner dose 0.4 µM) | 15.3% | 11% | 36.2% | 31.9% | 26.9% | 62.8% | 28.6% | 38.9% | 39.1% | 24.7%
COCC[n+]1c2c(n(Cc3cnccn3)c1C)C(=O)c1ccccc1C2=O + COc1cc2c(Oc3ccc4[nH]c(C)cc4c3F)ncnc2cc1OCCCN1CCCC1 [cediranib] (first compound 0.002 µM, partner dose 2 µM) | 57.9% | 11.6% | 67.8% | 37.6% | 22.5% | 71.1% | 79.5% | 53.7% | 88.9% | 42.5%
C#Cc1cccc(Nc2ncnc3cc(OCCOC)c(OCCOC)cc23)c1 [erlotinib] + COc1ccc(Cl)c(Nc2nc3ccccc3nc2NS(=O)(=O)c2cccc(NC(=O)C(C)(C)N)c2)c1 [XL147] (first compound 4 µM, partner dose 4 µM) | 64% | 87.7% | 66.8% | 54.7% | 90.3% | 53.4% | 77.9% | 83.7% | 60.3% | 68.5%
C#Cc1cccc(Nc2ncnc3cc(OCCOC)c(OCCOC)cc23)c1 [erlotinib] + O=C(CCCCCCC(=O)Nc1ccccc1)NO [vorinostat] (first compound 4 µM, partner dose 0.4 µM) | 60.8% | 61.1% | 89% | 83.2% | 96% | 69% | 94.4% | 80.1% | 77.9% | 59.9%
C#Cc1cccc(Nc2ncnc3cc(OCCOC)c(OCCOC)cc23)c1 [erlotinib] + Cc1nc(Nc2ncc(C(=O)Nc3c(C)cccc3Cl)s2)cc(N2CCN(CCO)CC2)n1 [dasatanib] (first compound 4 µM, partner dose 0.02 µM) | 59.1% | 78.5% | 68.9% | 49.3% | 74.2% | 40.3% | 47.5% | 68.7% | 27.2% | 64.6%
C#Cc1cccc(Nc2ncnc3cc(OCCOC)c(OCCOC)cc23)c1 [erlotinib] + Cc1ccc(NC(=O)c2cccc(N(C)C)c2)cc1NC(=O)c1ccc(O)cc1 [ZM336372] (first compound 4 µM, partner dose 10 µM) | 79.5% | 93.3% | 94.8% | 62.6% | 80.3% | 60% | 73.1% | 110% | 53.2% | 85%
Cn1c(Nc2ccc(C(F)(F)F)cc2)nc2cc(Oc3ccnc(-c4ncc(C(F)(F)F)[nH]4)c3)ccc21 + O=C(CCCCCCC(=O)Nc1ccccc1)NO [vorinostat] (first compound 0.4 µM, partner dose 0.4 µM) | 44.2% | 42.5% | 51.6% | 31.7% | 58.2% | 54.3% | 41% | 64.6% | 62.5% | 38.7%
O=C(CCCCCCC(=O)Nc1ccccc1)NO [vorinostat] + CCCCCCCCCCCC1=C(O)C(=O)C=C(O)C1=O [Embelin] (first compound 0.4 µM, partner dose 6 µM) | 47.1% | 81.1% | 85.6% | 73% | 61.7% | 90% | 78.8% | 108% | 73.2% | 75%
COCC[n+]1c2c(n(Cc3cnccn3)c1C)C(=O)c1ccccc1C2=O + CCN(CC)CCCCNc1ncc2cc(-c3cc(OC)cc(OC)c3)c(NC(=O)NC(C)(C)C)nc2n1 [PD173074] (first compound 0.002 µM, partner dose 0.5 µM) | 57.9% | 29.8% | 61.8% | 56.4% | 27.9% | 70% | 46.3% | 68.2% | 88.2% | 37.7%
COCC[n+]1c2c(n(Cc3cnccn3)c1C)C(=O)c1ccccc1C2=O + OCCn1cc(-c2cnc3nnn(Cc4ccc5ncccc5c4)c3n2)cn1 [PF04217903] (first compound 0.002 µM, partner dose 5 µM) | 51.4% | 46% | 76.7% | 31.7% | 24.4% | 94% | 75.3% | 56.9% | 96.2% | 42.4%
Nc1cccc2c1CN(C1CCC(=O)NC1=O)C2=O (stereo not given) [lenalidomide] + CCCCCCCCCCCC1=C(O)C(=O)C=C(O)C1=O [Embelin] (first compound 5 µM, partner dose 6 µM) | 99.2% | 91.2% | 86.6% | 82.7% | 82.8% | 84.8% | 86.9% | 85.2% | 70.4% | 102%
Nc1cccc2c1CN(C1CCC(=O)NC1=O)C2=O (stereo not given) [lenalidomide] + Cn1cc(/C=C2\C(=O)Nc3cccnc32)c2ccccc21 [GW441756] (first compound 5 µM, partner dose 2 µM) | 87.3% | 94.4% | 91.2% | 66% | 78.6% | 73.3% | 85% | 89.2% | 61.2% | 81.8%
OCc1c[nH]c2ccccc12 [Indole-3-carbinol] + Cc1ccc(NC(=O)c2cccc(N(C)C)c2)cc1NC(=O)c1ccc(O)cc1 [ZM336372] (first compound 4 µM, partner dose 10 µM) | 81.6% | 90.6% | 128% | 78.5% | 87% | 118% | 90.3% | 106% | 80.1% | 89.8%
C#Cc1cccc(Nc2ncnc3cc(OCCOC)c(OCCOC)cc23)c1 [erlotinib] + Nc1cccc2c1CN(C1CCC(=O)NC1=O)C2=O [lenalidomide] (first compound 4 µM, partner dose 5 µM) | 75.5% | 104% | 87.9% | 79.9% | 79.4% | 50.2% | 90% | 91.6% | 61.8% | 81.5%
Clc1ccc(Nc2nnc(Cc3ccncc3)c3ccccc23)cc1 [vatalanib] + Cc1ccc(NC(=O)c2cccc(N(C)C)c2)cc1NC(=O)c1ccc(O)cc1 [ZM336372] (first compound 10 µM, partner dose 10 µM) | 61.9% | 80.3% | 98.4% | 64.9% | 84.7% | 89.4% | 107% | 110% | 37.6% | 78.7%
C#Cc1cccc(Nc2ncnc3cc(OCCOC)c(OCCOC)cc23)c1 [erlotinib] + CC1(C)NC(=O)N(c2ccc([N+](=O)[O-])c(C(F)(F)F)c2)C1=O [nilutamide] (first compound 4 µM, partner dose 5 µM) | 57.4% | 96.1% | 87.8% | 64.4% | 84.8% | 62.6% | 62.1% | 92% | 49.3% | 75.5%
Clc1ccc(Nc2nnc(Cc3ccncc3)c3ccccc23)cc1 [vatalanib] + COc1cc(Nc2ncc(F)c(Nc3ccc4c(n3)NC(=O)C(C)(C)O4)n2)cc(OC)c1OC [Tamatinib] (first compound 10 µM, partner dose 2 µM) | 79.3% | 73.8% | 89.1% | 40.7% | 50.4% | 65.2% | 71.4% | 61.8% | 29.5% | 66.4%
C#Cc1cccc(Nc2ncnc3cc(OCCOC)c(OCCOC)cc23)c1 [erlotinib] + O=C(Nc1ccccc1)c1cc([N+](=O)[O-])ccc1Cl [GW9662] (first compound 4 µM, partner dose 10 µM) | 50.4% | 85.7% | 80% | 73.1% | 80.9% | 50.6% | 47.6% | 75% | 48.2% | 65.9%
